The whole screen tested about 310,000 compounds, of which about 14,000 (4.5%) showed an effect of 50% or more. The effect is printed as a negative number. The list shows a part of the results.
Biological target: human ether-à-go-go-related gene (hERG) potassium channel (human, UniProt Q12809)
Assay: primary screen, population patch clamp on CHO cells stably expressing hERG
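Note: peak tail current of the secondary pulse compared with the same well before compound.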

human ether-à-go-go-related gene (hERG) potassium channel, sequence (Q12809 whole entry, looked up): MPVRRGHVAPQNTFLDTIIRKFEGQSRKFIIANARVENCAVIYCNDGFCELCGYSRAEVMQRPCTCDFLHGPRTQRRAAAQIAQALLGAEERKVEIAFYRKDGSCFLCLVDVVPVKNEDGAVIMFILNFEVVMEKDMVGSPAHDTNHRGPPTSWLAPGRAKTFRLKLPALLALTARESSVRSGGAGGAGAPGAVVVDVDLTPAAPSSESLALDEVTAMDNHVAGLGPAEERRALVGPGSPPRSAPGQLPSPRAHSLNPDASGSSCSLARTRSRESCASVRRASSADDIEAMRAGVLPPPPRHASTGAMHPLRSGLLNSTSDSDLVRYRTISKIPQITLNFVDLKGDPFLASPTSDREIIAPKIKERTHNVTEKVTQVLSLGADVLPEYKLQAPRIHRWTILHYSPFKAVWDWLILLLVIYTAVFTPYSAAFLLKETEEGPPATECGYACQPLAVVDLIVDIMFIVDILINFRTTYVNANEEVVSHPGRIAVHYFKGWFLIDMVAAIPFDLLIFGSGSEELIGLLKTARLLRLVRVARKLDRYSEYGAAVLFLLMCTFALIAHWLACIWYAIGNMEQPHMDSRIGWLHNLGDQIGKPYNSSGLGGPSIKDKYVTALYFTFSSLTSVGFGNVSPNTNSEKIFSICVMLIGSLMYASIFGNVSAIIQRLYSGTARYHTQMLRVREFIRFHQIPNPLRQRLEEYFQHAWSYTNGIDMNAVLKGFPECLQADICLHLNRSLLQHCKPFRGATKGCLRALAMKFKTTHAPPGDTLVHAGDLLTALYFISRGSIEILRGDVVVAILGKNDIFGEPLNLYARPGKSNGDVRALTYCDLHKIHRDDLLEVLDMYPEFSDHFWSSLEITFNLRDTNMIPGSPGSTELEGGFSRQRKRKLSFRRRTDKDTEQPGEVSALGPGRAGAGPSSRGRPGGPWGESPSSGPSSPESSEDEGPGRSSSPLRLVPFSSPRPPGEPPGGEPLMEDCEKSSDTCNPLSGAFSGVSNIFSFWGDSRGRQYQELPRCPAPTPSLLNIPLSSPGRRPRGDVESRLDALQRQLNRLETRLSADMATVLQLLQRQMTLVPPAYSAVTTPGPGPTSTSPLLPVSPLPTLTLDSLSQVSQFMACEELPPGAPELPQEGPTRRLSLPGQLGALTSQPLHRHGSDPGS

| Compound | hERG current change (%, negative = inhibition) at 10uM [%] |
| --- | --- |
| Cc1cc(NC(=O)Nc2cc(F)ccc2C)n(C)n1 | 13 |
| COc1ccccc1N1CCN(S(=O)(=O)c2cccc(F)c2)CC1 | -0.649 |
| CCCc1cc2c(cc1NC(=O)c1ccc(C)cc1)OCO2 | 0.769 |
| OCc1ccc(OCCCOc2cccc3cccnc23)cc1 | -9.43 |
| Cc1ccccc1NC(=S)NCC1CCN(C(C)c2ccccc2)C1 (centres unmarked) | 6.64 |
| CC(=O)CCSc1nnc(-c2cccc(S(=O)(=O)N3CCOCC3)c2)o1 | -8.52 |
| COc1ccc(CC(C)N2CCN(Cc3ccccc3)CC2)c(OC)c1 (centres unmarked) | -75.3 |
| COc1ccc(CC2SC(=Nc3ccc(F)cc3)NC2=O)cc1 (centres unmarked) | 9.95 |
| CCCSc1nnc(-c2ccccc2N)c(=O)[nH]1 | -2.4 |
| Cc1nn(C)cc1/C=N\NC(=O)Cc1ccc([N+](=O)[O-])cc1 | -16.6 |
| CNS(=O)(=O)c1cc(NC(=O)c2cncn2-c2ccccc2)ccc1C | 11.7 |
| CC(C)n1cc(C(N)=S)c(=O)n(Cc2ccccc2)c1=O | 21.5 |
| Cc1cc(CNC(=O)Cc2ccc(F)cc2)c2ccccc2n1 | -14.7 |
| COC(=O)c1ccc(NC(=O)CN2CCCC2)cc1 | 5.33 |
| Cc1ccc(/C=N/NC(=O)c2nnn(-c3nonc3N)c2CNc2ccccc2)cc1 | 9.21 |
| COc1cc(SC)ccc1C(=O)Nc1ccc2c(c1)CCC2 | 13.1 |
| Cc1ccccc1Cn1c(=O)n(CCCC(=O)NCc2ccco2)c(=O)c2ccccc21 | -15.5 |
| CC(C)CN1CCC(=O)N([C@H](CO)Cc2ccccc2)CC1 | 6.64 |
| Cc1cc(-c2ccccc2)nc(N(C)C)c1S(C)(=O)=O | 20.1 |
| Cc1ccnc(-n2sc3ccccc3c2=O)n1 | 14.7 |
| COc1cccc(CN2CCN(S(=O)(=O)c3ccc(Cl)s3)CC2)c1 | -46.3 |
| Cc1ccccc1CN1C[C@@H]2C[C@@H](c3cnc(N4CCOCC4)s3)N3CCC[C@@]23C1=O | 1.74 |

| Compound | hERG current change (%, negative = inhibition) at 10uM [%] |
| --- | --- |
| Cc1ccc(-c2ccc(C(=O)NCc3ccc(Cl)cc3)o2)c2ccccc12 | 6.33 |
| CC(=O)N1c2c(cc(Br)cc2S(=O)(=O)N2CCN(C(=O)c3ccco3)CC2)CC1C (centres unmarked) | -5.52 |
| CCOC(=O)CN1C(=O)N[C@H](c2ccc(Br)cc2)C(C(C)=O)=C1C | 6.7 |
| CN=c1scc(-c2cc(OC)ccc2OC)n1/N=C/c1c(C)[nH]c2ccccc12 | 8.19 |
| COc1cc(/C=N/Nc2nn3cnnc3c3ccccc23)cc(OC)c1OC | 4.25 |
| COc1ccc(/C=C/C(=O)NC(=S)NNC(=O)c2cccnc2)cc1OC | 11.1 |
| Cl.O=C(CN1CCCC1)N1c2ccccc2C=Cc2ccccc21 | 1.12 |
| CCn1c(=O)c(CCC(=O)N2CCN(c3ccccn3)CC2)c(C)c2c(C)nn(-c3ccccc3)c21 | -17.8 |
| CCOc1ccc(NC(=O)c2ccccc2NC(=O)CN(C)CC(=O)Nc2ccc(C)cc2)cc1 | -2.68 |
| CCOC(=O)N1CCN(Cc2nc3c(c(=O)n(C)c(=O)n3C)n2Cc2ccc(F)cc2)CC1 | -36.2 |
| O=C(CCSc1ccc(Cl)cc1)NCc1ccncc1 | -32.7 |
| Cc1ccc(NC(=O)N2CCCC(c3nc(-c4ccc(F)cc4)no3)C2)cc1 (centres unmarked) | -16.4 |
| O=C(O)c1ccccc1Nc1ccccc1C(=O)O | -2.63 |
| CCCc1ccc2oc(C(=O)N(Cc3ccncc3)CC3CCCO3)c(C)c2c1 (centres unmarked) | -71.6 |
| O=S1(=O)CCN(Cc2ccc(F)cc2)CC1 | 10.5 |
| COc1cc(/C=C/C(=O)OCC(=O)NC2CCS(=O)(=O)C2)ccc1OC(F)F (centres unmarked) | -14 |
| O=C(CSc1nc2ccc([N+](=O)[O-])cc2s1)NCC1CCCO1 (centres unmarked) | -54.4 |
| Cc1c(C(=O)N2CCN(c3ccc([N+](=O)[O-])cc3)CC2)oc2ccccc12 | -72.8 |
| CCC(C)NC(=O)c1ccc([N+](=O)[O-])c(Cl)c1 (centres unmarked) | -3.97 |
| CCOc1ccc(-c2nnn(CC(=O)Nc3cccc(OC)c3)n2)cc1OCC | 6 |
| Cn1cnnc1Sc1nc2c(c(=O)n(C)c(=O)n2C)n1Cc1ccccc1Cl | -23.7 |
| COc1ccccc1Nc1nc(-c2sc(NC(=O)c3ccccc3)nc2C)cs1 | 15.7 |

| Compound | hERG current change (%, negative = inhibition) at 10uM [%] |
| --- | --- |
| COc1ccc(NC(C)=O)cc1NC(=O)CN1CCN(S(=O)(=O)c2ccc(C(C)C)cc2)CC1 | -9.86 |
| c1ccc(OCc2nnc3n2N=C(c2ccccc2)CS3)cc1 | -31.8 |
| Cc1nn(-c2nc3ccccc3n2Cc2ccccc2)c2c1C(=O)CC(C)(C)C2 | -34 |
| CCOC(=O)c1c(C)nc(-c2ccccc2)nc1NC(C)=O | -10.2 |
| Clc1cccc(Cl)c1/C=N\Nc1nccs1 | -2.98 |
| CCc1ccc(NC(=O)CN2CCCN(S(=O)(=O)c3ccc(F)cc3)CC2)cc1 | -63.9 |
| CCOc1ncccc1C(=O)OCC(=O)NC1CC1 | 15.5 |
| CCCCn1nc2cc(C(=O)NCC34CC5CC(CC(C5)C3)C4)ccc2c1OCC | -13.9 |
| CCOc1ccc(/C(O)=C2/C(=O)C(=O)N(Cc3cccnc3)C2c2ccc(N(C)C)cc2)c(C)c1 (centres unmarked) | -31.3 |
| Cc1ccc(S(=O)(=O)N2CCN(C(=O)c3ccccn3)CC2)cc1 | 9.2 |
| O=C(O)C(=O)O.O=C(c1cccs1)N1CCN(Cc2ccccn2)CC1 | 28.1 |
| O=C(CSc1nc2c(cnn2-c2ccc(F)cc2)c(=O)[nH]1)N1CCCCCC1 | 0.0971 |
| CN(Cc1ccco1)S(=O)(=O)c1nnc(NC(=O)c2cccc(Cl)c2)s1 | 13.3 |
| C=C(C)C(=O)OC1(C(F)(F)F)Oc2cc(C)ccc2NC1=O (centres unmarked) | 6.5 |
| O=C(Nc1ncc(Cc2ccccc2)s1)c1cccs1 | 2.03 |
| COc1ccc(C(C(=O)NC(C)(C)C)N(C(=O)CCC(=O)Nc2cc(C)on2)c2c(C)cccc2C)cc1 (centres unmarked) | 13.3 |
| O=C(COC(=O)COc1cccc(C(F)(F)F)c1)NC(=O)NC1CCCCC1 | -1.9 |
| COc1ccc(NC(=O)CCCN2C(=O)/C(=C\c3ccco3)SC2=S)cc1 | 2.84 |
| CC(C)CN(C(=O)COc1ccc([N+](=O)[O-])cc1)c1c(N)n(CC(C)C)c(=O)[nH]c1=O | -13.6 |
| O=C(CN1CCN(Cc2ccccc2Cl)CC1)N/N=C/c1ccccn1 | -25.8 |
| COc1ccc(NC(=O)CSc2nncs2)cc1OC | 5.25 |
| Cc1cccc(C(=O)Nc2cccc(OCC(=O)O)c2)c1 | 18.3 |

| Compound | hERG current change (%, negative = inhibition) at 10uM [%] |
| --- | --- |
| COC(=O)CSc1nc2nc(-c3cccs3)cc(C(F)(F)F)c2c(=O)[nH]1 | 17.7 |
| O=C(c1ccccc1)N1CCSC1=S | -0.835 |
| O=C1CN(C(=O)CCN2CCOCC2)C(c2ccccc2)c2cc(Br)ccc2N1 (centres unmarked) | -60.5 |
| COC(=O)C1=C(N)Oc2cc(C)n(Cc3ccccc3)c(=O)c2C1c1ccccc1 (centres unmarked) | -6.61 |
| CCOc1ccc(C(=O)Nc2c3c(nn2-c2cccc(Cl)c2)CS(=O)C3)cc1 (centres unmarked) | -18.8 |
| COC(=O)c1ccc(/C=N/OCC(=O)NCCc2ccc(OC)c(OC)c2)cc1 | -8.75 |
| Cc1occc1-c1nnc(SCc2cc(=O)n3cc(Br)ccc3n2)n1C | -47.7 |
| O=C(CN1C(=O)C2CCCCN2C(=O)c2ccccc21)Nc1ccc(F)cc1.O=C(O)C(=O)O (centres unmarked) | -1.9 |
| COc1ccc(CCNC(=O)CS(=O)Cc2nc(-c3ccccc3F)oc2C)cc1OC (centres unmarked) | 13 |
| CCc1[nH]nc(C(=O)N2CCCC(N3CCN(c4ccccc4C)CC3)C2)c1C (centres unmarked) | -23.8 |
| C=CCOC(=O)c1sc(NC(=O)c2ccc(OC)cc2)nc1C | 20.2 |
| Cc1ccccc1/C=C\c1nc2ccccc2c(=O)n1Cc1ccccc1 | 1.88 |
| CCN(CC)P1(=O)OC(c2cc(OC)c(OC)c(OC)c2)=Nc2c1c(C)nn2-c1ccccc1 (centres unmarked) | -9.67 |
| COc1ccc(-n2nc(C(=O)NCC(=O)NCCCN3CC(C)CC(C)C3)c3ccccc3c2=O)cc1 (centres unmarked) | -37.2 |
| O=C(NCc1ccccc1)[C@@H]1CSC2c3ccccc3C(=O)N21 (some centres unmarked) | -2.83 |
| Cc1cc(S(=O)(=O)NC2CCCCC2)ccc1OCC(=O)NCC1CCCO1 (centres unmarked) | 11.9 |
| CCCCn1c(SCC(=O)Nc2ccc3c(c2)CCC3)nc2ccccc2c1=O | -33.6 |
| O=C(CSCc1ccc(Cl)cc1)N1CCCCC1 | -2.62 |
| O=c1[nH]c(=S)[nH]c(O)c1C(c1ccccn1)c1c(O)[nH]c(=S)[nH]c1=O | 7.07 |
| CCN(CC)C(=O)c1[nH]cnc1C(=O)Nc1ccc(OC)cc1 | 19 |
